Source: PubChem BioAssay AID720569 (National Center for Advancing Translational Sciences (NCATS), 2013)
The inconclusive results got no clear call from the source; some entries with a clear call stand among them for comparison. Potencies of inconclusive entries are doubtful fits and often do not repeat. Active and inactive are the calls of the source. The call rests on the fitted dose curve; in most records, active means well fitted inhibition curve with a large enough effect; inconclusive means small, poorly fitted or top-dose-only effect; inactive means no such curve, though single readings can be large or run the other way.

Tested on: pyruvate kinase (Trypanosoma brucei)
Test: qHTS of Trypanosoma Brucei Inhibitors: Confirmatory Assay for Cherry-picked Compounds; further: nearly all actives have a fitted effect of over 70% in size
Details: recombinant TbPYK, Kinase-Glo ATP luminescence; activity change, negative = inhibition: at 76.9 µM (top of the series)
Method in brief: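 Inhibition of TbPYK is measured as reduced ATP output, detected by Kinase-Glo Plus luminescence after a 45 min room-temperature reaction started with 130 uM ADP; enzyme-free wells serve as controls.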
On the % scale 0 is the no-effect control and ±100 the full control effect; potency means the concentration at half of the fitted maximal effect; tags describe the fitted curve by direction and shape.

| Compound | activity change, negative = inhibition | Potency |
| --- | --- | --- |
| Cc1ccc2cc(CN(CC(C)C)C(=O)C3CCCO3)c(=O)[nH]c2c1 (stereo unspecified) | inactive: -19.9% | – |
| NC(=O)Cn1c(=O)n(Cc2ccco2)c(=O)c2c3c(sc21)CCCCC3 | – | inconclusive: 25.1 µM [inhibitor, partial curve] |
| O=C1N=c2ccccc2=C1c1sc(=O)[nH]c1O | – | inconclusive: 31.6 µM [inhibitor, partial curve] |
| Cc1ccc(S(=O)(=O)NNC(=O)C2CCN(S(=O)(=O)c3ccc(C)cc3)CC2)cc1 | inactive: 3.54% | – |
| Cc1cc(Br)ccc1NC(=O)CN(C)C(=O)Cn1c(=O)cnc2ccccc21 | – | inconclusive: 35.5 µM [inhibitor, single point] |
| Cn1c2ccccc2c2ccc3c(c21)C(=O)C=CC3=O | inactive: -28.1% | – |
| NC(=O)c1c(N)sc2c1CCCCC2 | – | inconclusive: 6.31 µM [inhibitor, partial curve, poor fit] |
| CCC(CC)C(=O)Nc1cccc(C(=O)NCc2ccco2)c1 | inactive: -7.82% | – |
| Cc1ccc(/C=C2/NC(=O)N(Cc3ccccc3F)C2=O)o1 | – | inconclusive: 31.6 µM [inhibitor, partial curve, poor fit] |
| Cc1ccc(/C=C2\C(=O)Nc3ccccc32)o1 | – | inconclusive: 14.1 µM [inhibitor, partial curve] |
| C=Cc1ccc(C(=O)N2CCCC(Nc3ccc4c(c3)OCCO4)C2)cc1 (stereo unspecified) | – | inconclusive: 31.6 µM [inhibitor, partial curve] |
| S=C(NCc1ccccc1)NNc1nc2ccccc2[nH]1 | – | inconclusive: 35.5 µM [inhibitor, single point] |
| CCc1ccc(NC(=O)NCC2CCN(c3ccc(OC)cc3)C2)cc1 (stereo unspecified) | – | inconclusive: 15.8 µM [inhibitor, partial curve] |
| Cn1c(=O)[nH]c(=O)c2c1nc(SCC(=O)O)n2Cc1ccccc1 | – | inconclusive: 39.8 µM [inhibitor, single point] |
| N#C/C(=C/c1ccc(N2CCCCCC2)o1)c1ccc(Cl)cc1 | – | inconclusive: 50.1 µM [inhibitor, single point] |
| CCn1c(C)nc2cc(C(=O)NNC(=O)c3ccc(C)cc3)ccc21 | – | inconclusive: 22.4 µM [inhibitor, partial curve] |
| Cc1ccc(CNC(=O)C2CCN(S(=O)(=O)c3cccs3)CC2)o1 | – | inconclusive: 22.4 µM [inhibitor, partial curve] |
| CS(=O)(=O)N1CCN(c2ccc([N+](=O)[O-])cc2C(F)(F)F)CC1 | – | inconclusive: 44.7 µM [inhibitor, single point] |

| Compound | activity change, negative = inhibition | Potency |
| --- | --- | --- |
| Clc1ccc2nc(-c3ccco3)c(Cc3ccccc3)n2c1 | – | inconclusive: 39.8 µM [inhibitor, partial curve, poor fit] |
| Cc1ccc(NNS(=O)(=O)c2ccc(C)cc2)cc1 | – | active: 8.91 µM |
| CC1=CC(=Nc2c(C)n(C)n(-c3ccccc3)c2=O)C=C(C)C1=O | inactive: -26% | – |
| N#Cc1c(NC(=O)CCC(=O)O)sc2c1CCCCC2 | – | inconclusive: 20 µM [inhibitor, partial curve] |
| O=C(CCN1CCc2ccccc2C(c2ccccc2)C1)c1ccc2c(c1)OCCO2 (stereo unspecified) | – | inconclusive: 28.2 µM [inhibitor, single point] |
| O=C(N/N=C/c1ccccc1)c1[nH]ncc1Br | inactive: -27.4% | – |
| COc1ccc(OC)c(C2CC(=O)N3CN(c4cccc(Cl)c4)CSC3=C2C#N)c1 (stereo unspecified) | – | inconclusive: 39.8 µM [inhibitor, partial curve] |
| Cc1ccc(/C=C/C(=O)NCC2COc3ccccc3O2)o1 (stereo unspecified) | – | active: 25.1 µM |
| CSc1nsc(SC)c1NC(=O)N1CCCC1 | – | inconclusive: 22.4 µM [inhibitor, partial curve] |
| Cc1cccc2cc3c(nc12)SC(=NCC1CCCO1)N(Cc1ccco1)C3 (stereo unspecified) | – | inconclusive: 28.2 µM [inhibitor, single point] |
| COc1ccc(CCNC(=O)/C=C/c2ccco2)cc1 | – | inconclusive: 28.2 µM [inhibitor, single point] |
| COc1ccc(/C=C2/C(=O)ON=C2C)cc1Br | – | inconclusive: 28.2 µM [inhibitor, partial curve] |
| c1cc2c(cc1CN1CCOCC1)OCO2 | inactive: 12.2% | – |
| COC(=O)/C=C\C(=O)Nc1cccc([N+](=O)[O-])c1 | inactive: -92% | – |
| CC(=O)NC1=NC(=O)/C(=C/c2cn(C(C)=O)nc2-c2ccccc2)S1 | – | inconclusive: 7.08 µM [inhibitor, partial curve, poor fit] |
| CCOC(=O)c1ccc(/[N+]([O-])=C/c2ccccc2)cc1 | inactive: -26.2% | – |
| CCc1ccc(N2CSC3=C(C#N)C(c4cccs4)CC(=O)N3C2)cc1 (stereo unspecified) | – | active: 4.47 µM |
| CSc1ccccc1NC(=O)Cn1nc([N+](=O)[O-])c(Cl)c1C | – | active: 20 µM |
